The record followed here is publication PMC6919601, “Identification of Plasmodium dipeptidyl aminopeptidase allosteric inhibitors by high throughput screening” (PLoS ONE, 2019).

Structures are written as SMILES. Among all 110,000 compounds or so, about 230 (0.21%) showed an effect of 50% or more. Some of the results follow.
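Also: 30 min substrate incubation versus DMSO and 10 µM JCP410 controls.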

In the test the target is DPAP1 (Plasmodium falciparum, UniProt Q8IIJ9). In words: primary screen, percent inhibition; read by cleavage of a fluorogenic dipeptide substrate; higher = more effect of the substance. Also noted: species or system P. falciparum D10 trophozoite lysates; single well.
Sequence of DPAP1 (Q8IIJ9 whole entry, looked up): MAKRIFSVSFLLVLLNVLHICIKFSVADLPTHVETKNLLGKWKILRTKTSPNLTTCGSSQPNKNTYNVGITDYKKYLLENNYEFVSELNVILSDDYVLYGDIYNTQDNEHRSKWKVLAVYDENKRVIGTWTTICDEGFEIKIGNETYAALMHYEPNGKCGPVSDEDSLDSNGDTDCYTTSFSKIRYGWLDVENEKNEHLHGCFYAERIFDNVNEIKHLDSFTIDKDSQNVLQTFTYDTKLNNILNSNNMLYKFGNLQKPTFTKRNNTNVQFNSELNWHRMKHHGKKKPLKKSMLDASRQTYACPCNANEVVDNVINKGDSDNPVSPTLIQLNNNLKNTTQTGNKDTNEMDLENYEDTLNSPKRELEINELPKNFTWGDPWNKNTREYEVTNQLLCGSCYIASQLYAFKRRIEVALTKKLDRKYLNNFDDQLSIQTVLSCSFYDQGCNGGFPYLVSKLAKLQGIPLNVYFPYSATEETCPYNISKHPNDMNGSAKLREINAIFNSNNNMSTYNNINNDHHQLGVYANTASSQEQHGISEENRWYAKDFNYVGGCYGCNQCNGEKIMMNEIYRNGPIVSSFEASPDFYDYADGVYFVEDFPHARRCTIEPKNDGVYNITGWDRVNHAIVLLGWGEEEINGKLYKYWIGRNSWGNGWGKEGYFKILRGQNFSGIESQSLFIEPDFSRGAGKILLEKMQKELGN
As for `O=C1c2ccccc2C(=O)c2c1n[n+]([O-])n2CCCN1CCN(c2ccccn2)CC1`, the “% Inhibition @ 10 uM” value is -0.92%. On to `COc1ccc(C)cc1NC(=O)c1cccnc1Cl`, for which the “% Inhibition @ 10 uM” value amounted to 1.64%.

For `CCOC(=O)c1cc2c(nc1N)COC(C)(C)C2`, the “% Inhibition @ 10 uM” value was -6.83%. As for `Oc1nc(-c2ccccc2)ncc1Oc1ccccc1`, the figure is -1.61%. `COCC(C)NCc1ccccc1C(F)(F)F` (centres unmarked): the “% Inhibition @ 10 uM” value is -1.85%. As for `Nc1ccc(Sc2ccc(Cc3ccc(Sc4ccc(N)cc4)cc3)cc2)cc1`, the figure is -0.415%; as for `Cc1ccc(S(=O)(=O)N2CCC(C(=O)Nc3c(F)cccc3F)CC2)cc1`, 1.93%; as for `CCc1c(C)n[n+]2cnn(Cc3ccc(Cl)cc3)c2c1O`, 1.13%.

Turning to `CCOc1ccc(C(C)(C)C)cc1S(=O)(=O)Nc1ccc(Cl)cn1`, the “% Inhibition @ 10 uM” value is on record as -3.53%. With `COc1cc(/C=C\C(=O)Nc2c3c(nn2-c2cccc(C)c2C)CS(=O)(=O)C3)cc(OC)c1OC` the figure was 8.58%; with `CC1CCc2c(sc(NC(=O)c3cccs3)c2C#N)C1` (centres unmarked), 1.37%.

As to `N#CC1=C(N)Oc2ncnc(O)c2C1c1ccc(-c2ccccc2)cc1` (centres unmarked), the “% Inhibition @ 10 uM” value was found to be 2.01%.

For the compound `Cc1ccc(C)n1-c1cc(C(=O)O)ccc1O`, the “% Inhibition @ 10 uM” value turned out to be 1.26%.

For `COc1cccc(CN2CCN(Cc3ccc(F)cc3)CC2)c1OC`, the “% Inhibition @ 10 uM” value is -7.46%. For `CCC(=O)Nc1ccc(C(=O)Nc2cc(OC)c(OC)cc2C(=O)O)cc1`, the “% Inhibition @ 10 uM” value was found to be 2.29%. On to `N#CC1=C(N)Oc2[nH]nc(-c3cccs3)c2C1c1ccccc1Cl` (centres unmarked), for which the “% Inhibition @ 10 uM” value is on record as -6.37%.

In the case of `COCCN1C(=O)c2ccccc2C(C(=O)N2CCCC2)C1c1cccs1` (centres unmarked), the “% Inhibition @ 10 uM” value is listed as 0.526%. As for `CC1=C(C(=O)Nc2ccccc2C)C(c2cccs2)C(C#N)=C(SCC(N)=O)N1` (centres unmarked), the “% Inhibition @ 10 uM” value is on record as 3.46%.

With `Cc1ccc(CN2CCCN(C)CC2)s1`, the “% Inhibition @ 10 uM” value was -7.34%. As for `COc1cccc(C2NCCc3c2[nH]c2ccccc32)c1O` (centres unmarked), the figure is 3.16%. With `O=C1c2oc3ccc(Cl)cc3c(=O)c2C(c2ccc(O)cc2)N1Cc1ccc2c(c1)OCO2` (centres unmarked) the figure was -1.33%; with `CCN(CC)CCNC(=O)CSCc1ccc(C)cc1`, 0.514%; with `O=C(CC(c1ccccc1)c1ccccc1)NCc1cccs1`, -0.132%. With `c1n[nH]c2c1CNCC2` the figure was 0.708%; with `N#Cc1cccc(CSc2nc3ncccc3o2)c1`, 1.81%.

Consider `Cc1ccc(-c2nn(CC(=O)NC3CCCC3)c(=O)c3ccccc23)cc1`, for which the “% Inhibition @ 10 uM” value is given as -1.68%. Consider `O=C(O)C1C2C=CC(C2)C1C(=O)N1CC=C(c2ccccc2)CC1` (centres unmarked), for which the “% Inhibition @ 10 uM” value is on record as -1.1%.

Take `CCOC(=O)c1c(S(=O)(=O)N2CCCC(C)C2)c(C)n(C)c1C` (centres unmarked): the “% Inhibition @ 10 uM” value is reported as -2.81%. As for `O=C(O)C1CCCCC1C(=O)Nc1ccc(Cl)cc1` (centres unmarked), the figure is -2.19%.
